Assay results from PubChem BioAssay AID2675 (National Center for Advancing Translational Sciences (NCATS), 2010).
The whole screen tested about 280,000 compounds, of which about 100 (0.036%) were called active. This list was built around the results that the source calls inconclusive (neither active nor inactive); the mix of calls is not that of the screen. Calls come from the whole dose curve; as a rule, active = well fitted inhibition curve with a large enough effect in the signal ratio, with a control signal flat (not every such curve was filed as active); inconclusive = small, poorly fitted or top-dose-only effect, or effect the other way, or a change in a side signal; inactive = no such curve, though single readings can be large or run the other way; the % refers to the signal ratio. Potencies of inconclusive entries are doubtful fits and often do not repeat. A note “side channel” means that the fit belongs to a control or component signal, not to the main read-out.

These compounds were tested against Muscleblind-like protein 1 (Homo sapiens) (UniProt Q9NR56) (assay: qHTS Assay for Inhibitors of MBNL1-poly(CUG) RNA binding). Conditions: TR-FRET MBNL1-His/biotin-(CUG)12 binding, 665/545 ratio; activity change, negative = inhibition: at 57.5 µM (top of the series).
In short: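 Compounds (final 92 nM to 58 uM) are added to His-tagged MBNL1 and biotin-(CUG)12, then terbium anti-His antibody and streptavidin-XL665 (5 nM final). After 60 min at room temperature, the 665/545 nm ratio is read.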
% is set by controls: 0 for no effect and ±100 for the full control effect; potency is the fitted concentration of half-maximal effect; tags give direction and shape of the fitted curve or compound fluorescence and quenching.

UniProt Q9NR56, sequence (Q9NR56 whole entry, looked up): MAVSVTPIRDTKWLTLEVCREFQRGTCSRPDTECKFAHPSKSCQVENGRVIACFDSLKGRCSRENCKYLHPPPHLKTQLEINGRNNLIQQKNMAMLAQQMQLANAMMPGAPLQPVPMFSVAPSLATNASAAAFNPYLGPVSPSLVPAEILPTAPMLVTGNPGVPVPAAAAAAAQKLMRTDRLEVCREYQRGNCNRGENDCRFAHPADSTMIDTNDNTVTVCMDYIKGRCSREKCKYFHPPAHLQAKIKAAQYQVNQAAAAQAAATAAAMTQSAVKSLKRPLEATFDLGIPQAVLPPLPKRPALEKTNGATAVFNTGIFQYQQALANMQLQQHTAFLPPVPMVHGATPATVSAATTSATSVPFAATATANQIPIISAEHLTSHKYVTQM

Row | SMILES | Potency | activity change, negative = inhibition
1 | CN1CCN(C(=O)c2cc(C(C)(C)C)cc(C(C)(C)C)c2)CC1 | inconclusive: 39.8 µM [fluorescent, side channel, single point] | 
2 | CCOC(=O)c1ccc(NC(=O)CSc2nnc(C3CC3)n2C)cc1 | inconclusive: 50.1 µM [inhibitor, single point] | 
3 | COc1ccc(-n2c(SCC(=O)Nc3ncc(Cl)cc3Cl)nc3ccccc32)cc1 |  | inactive: 3.58%
4 | CC1(C)Cc2ccccc2-c2nc(-c3ccccc3)oc(=O)c21 | inconclusive: 79.4 µM [inhibitor, single point] | 
5 | Cc1ccc(-c2cc(C(F)F)n3ncc(C(=O)N4CCc5ccccc5C4)c3n2)cc1 |  | inactive: 4.8%
6 | COc1cc(NC(=O)COC(=O)CSc2ccccc2F)c(C)cc1[N+](=O)[O-] | inconclusive: 39.8 µM [quencher, side channel, single point] | 
7 | O=C(COC(=O)c1cc([N+](=O)[O-])ccc1N1CCOCC1)NCc1ccc(Cl)cc1Cl | inconclusive: 14.1 µM [quencher, side channel, partial curve] | 
8 | O=C(c1ccco1)N1CCN(c2ncnc3scc(-c4ccc(F)cc4)c23)CC1 | inconclusive: 158 µM [inhibitor, single point] | 
9 | CCOCCn1c2ccccc2c2nc3ccccc3nc21 | inconclusive: 17.8 µM [quencher, side channel, partial curve] | 
10 | CCOC(=O)C(=CNNc1cccc(Cl)c1)C(=O)OCC |  | inactive: -8.63%
11 | C[C@H](NC(=O)c1[nH]cnc1C(=O)Nc1ccc(Cl)cc1)C(=O)OC(C)(C)C |  | inactive: -1.39%
12 | CS(=O)(=O)N1CCN=C1SCc1ccc([N+](=O)[O-])cc1 | inconclusive: 31.6 µM [quencher, side channel, single point] | 
13 | CCOc1ccc(NC(=O)CCNS(=O)(=O)c2cccc3nsnc23)cc1 | inconclusive: 14.1 µM [quencher, side channel, partial curve] | 
14 | N/C(=N\N=C\c1ccc2c(c1)OCO2)SC1CC(=O)N(c2ccc(C(=O)O)cc2)C1=O (centres undefined) | inconclusive: 39.8 µM [quencher, side channel, single point] | 
15 | O=C(N/N=C\c1ccc(CNS(=O)(=O)c2ccccc2)o1)C(=O)Nc1ccc(F)cc1 |  | inactive: -10.8%
16 | O=C(N/N=C/c1ccc(Br)s1)c1ccco1 | inconclusive: 39.8 µM [quencher, side channel, partial curve] | 
17 | CCOc1ccc(CNCc2ccccc2Cl)cc1 |  | inactive: -1.86%
18 | COc1ccc(C(=O)CSc2n[nH]c(C)n2)cc1[N+](=O)[O-] | inconclusive: 25.1 µM [quencher, side channel, partial curve] | 
19 | CCOCCn1c(SCc2ccccc2)nc2c1c(=O)[nH]c(=O)n2C | inconclusive: 5.62 µM [quencher, side channel, single point] | 
20 | CCOC(=O)c1c(C)[nH]c(C)c1S(=O)(=O)NCC1CCN(Cc2ccccc2OC)CC1 | inconclusive: 79.4 µM [inhibitor, single point] | 

Row | SMILES | Potency | activity change, negative = inhibition
21 | O=[N+]([O-])c1cc(-c2n[nH]c(-c3ccccc3)n2)cc([N+](=O)[O-])c1 | inconclusive: 2 µM [quencher, side channel, full curve] | 
22 | CCCCC[C@]12Cc3ccccc3C(O1)c1c(cc(C)oc1=O)O2 |  | inactive: -0.299% [at 11.5 µM]
23 | CC(=O)n1cc(/C=N/NC(=O)c2sc(C)nc2C)c2ccccc21 | inconclusive: 31.6 µM [quencher, side channel, partial curve] | 
24 | CCOCC(=O)Nc1cc(-c2cn3cccnc3n2)ccc1C | inconclusive: 12.6 µM [quencher, side channel, partial curve] | 
25 | O=[N+]([O-])c1c(Nc2ccccc2O)cc(Cl)c2nonc12 | inconclusive: 11.2 µM [quencher, side channel, partial curve] | 
26 | N#C/C(=C/c1ccc(O)c([N+](=O)[O-])c1)C(=O)Nc1ccccc1 | inconclusive: 25.1 µM [quencher, partial curve] | 
27 | Cc1ccc(/C(N)=N/OC(=O)Cc2cccc3ccccc23)cc1 |  | inactive: -1.85%
28 | Cc1nnc(Sc2cc(NCCCO)c([N+](=O)[O-])c3nonc23)s1 | inconclusive: 11.2 µM [quencher, side channel, partial curve] | 
29 | Cc1cc(C)cc(NC(=O)CN(Cc2ccccc2)S(C)(=O)=O)c1 | inconclusive: 0.562 µM [quencher, side channel, single point] | 
30 | Cc1ccc(-c2ccc(/C=N\n3cnnc3)o2)c(Br)c1 | inconclusive: 10 µM [quencher, side channel, partial curve] | 
31 | O=C(NCCc1ccccc1)C1CCN(S(=O)(=O)c2cccc3nonc23)CC1 | inconclusive: 7.94 µM [quencher, side channel, partial curve] | 
32 | COc1ccnc(N2CCN(c3ccccc3)CC2)c1C#N | inconclusive: 7.94 µM [quencher, side channel, single point] | 
33 | COc1ccc(S(=O)(=O)N2CCN(CC(=O)Nc3ccccc3Cl)CC2)cc1 |  | inactive: -3.7%
34 | COc1cc(OC)c(OC)cc1CN1CCCC(C(=O)N2CCCC2)C1 (centres undefined) |  | inactive: 0.488%
35 | CCOC(=O)N/N=C/c1ccc(OC)c(O)c1 | inconclusive: 39.8 µM [quencher, side channel, single point] | 
36 | Cc1cc(N2CCOCC2)nc2ccc(NC(=S)NCCC(C)C)cc12 | inconclusive: 31.6 µM [quencher, side channel, single point] | 
37 | COc1ccc(OC)c(N/C=C/C(=O)c2ccccc2)c1 | inconclusive: 28.2 µM [quencher, side channel, partial curve] | 
38 | COc1cccc(NC(=S)/C(=C(\[O-])c2ccc([N+](=O)[O-])cc2)[n+]2ccccc2)c1 | inconclusive: 15.8 µM [quencher, side channel, partial curve] | 
39 | O=C(CCSc1nc2cc(Cl)ccc2o1)N1CCOCC1 | inconclusive: 4.47 µM [quencher, side channel, full curve, poor fit] | 
